Experimental data: US20230093708A1 (DUKE UNIVERSITY, published 2023)
Blank lines part the entries; values can stand above or below the binder they belong to.

What was measured:
[1] = target: αvβ3 integrin on αvβ3-transfected K562 cells (UniProt P06756 31-1048; P05106 27-788); assay: cell-based or functional assay
human αvβ3 integrin [2] = target: T1, human αvβ3 integrin (human, UniProt P06756 31-992; P05106 27-718); assay: SPR (Biacore T200), human αvβ3 integrin amine-coupled to a CM5 chip, 25 °C, heterogeneous ligand model
T1 construct: extracellular domain; also called ectodomain of human αvβ3 integrin; the integrin
Protocol: (§1) The surface plasmon resonance experiments were performed using Biacore T200. Purified human αvβ3 integrin (Chemicon, Temecula, Calif.) were immobilized on research grade CM5 sensor chips using an amine coupling kit (BIAcore, Piscataway, N.J.). The integrin was diluted in 10 mM sodium acetate buffer (pH 4.5) for conjugation with a surface density of approximately 600 resonance units (RU). The measurements of binding events were performed using block co-polypeptide concentrations ranging between 2.5 and 10 μM. The block polypeptides were diluted in HBS-P buffer (10 mM HEPES, 140 mM NaCl, 0.005% Triton-X, pH 7.4) supplemented with 2 mM CaCl₂, and injected into the flow cells at a flow rate of 30 μL·min⁻¹ for 4 min. The complex was allowed for dissociation for 10 min. The surface was regenerated with 10 mM Glycine-HCl (pH 2.5) at a flow rate of 30 μL·min⁻¹ for 45 s, followed by 10 mM Glycine-HCl (pH 2.0) at a flow rate of 30 μL·min⁻¹ for 30 s. The surface was regenerated using 10 mM glycine-HCL (pH 2.0). Kinetic modeling and simulations were performed using BIAevaluation software with the heterogeneous ligand model for self-assembled proteins and with a 1:1 ligand model for the unimeric protein (RLP20-ELP80-Fn3). The equilibrium binding constants (KD1 and KD2) for each experiment were calculated by dividing kinetic dissociation rate (koff) by association rate (kₒₙ), from which the mean K_{D1/2} was derived. All SPR measurements were carried out at 25° C. The SPR measurements were carried out using polypeptide concentrations ranging between 2.5 and 10 μM. Goodness-of-fit was evaluated by analyzing residual plots and residual sum of squares.
We next used surface plasmon resonance (SPR) to characterize the avidity of the RLPXX-ELP80-Fn3 (SEQ ID NO: 95-97) fusions to the ectodomain of human αvβ3 integrin. SPR sensorgrams were generated for binding of the Fn3-functionalized RLP-ELP80 block co-polypeptides at concentrations ranging between 2.5 and 10 μM. As the core block size increases, the kₒₙ increases in magnitude, and the koff decreases in magnitude, both consistent with the increase in size of the binding unit (unimer or larger diameter micelle).

human αvβ3 integrin [3] = target: T1, human αvβ3 integrin; assay: SPR (Biacore T200), integrin immobilised on CM5 chip, 2.5-10 µM polypeptide
T1 sequence (P06756 31-992, chain 1 of 2): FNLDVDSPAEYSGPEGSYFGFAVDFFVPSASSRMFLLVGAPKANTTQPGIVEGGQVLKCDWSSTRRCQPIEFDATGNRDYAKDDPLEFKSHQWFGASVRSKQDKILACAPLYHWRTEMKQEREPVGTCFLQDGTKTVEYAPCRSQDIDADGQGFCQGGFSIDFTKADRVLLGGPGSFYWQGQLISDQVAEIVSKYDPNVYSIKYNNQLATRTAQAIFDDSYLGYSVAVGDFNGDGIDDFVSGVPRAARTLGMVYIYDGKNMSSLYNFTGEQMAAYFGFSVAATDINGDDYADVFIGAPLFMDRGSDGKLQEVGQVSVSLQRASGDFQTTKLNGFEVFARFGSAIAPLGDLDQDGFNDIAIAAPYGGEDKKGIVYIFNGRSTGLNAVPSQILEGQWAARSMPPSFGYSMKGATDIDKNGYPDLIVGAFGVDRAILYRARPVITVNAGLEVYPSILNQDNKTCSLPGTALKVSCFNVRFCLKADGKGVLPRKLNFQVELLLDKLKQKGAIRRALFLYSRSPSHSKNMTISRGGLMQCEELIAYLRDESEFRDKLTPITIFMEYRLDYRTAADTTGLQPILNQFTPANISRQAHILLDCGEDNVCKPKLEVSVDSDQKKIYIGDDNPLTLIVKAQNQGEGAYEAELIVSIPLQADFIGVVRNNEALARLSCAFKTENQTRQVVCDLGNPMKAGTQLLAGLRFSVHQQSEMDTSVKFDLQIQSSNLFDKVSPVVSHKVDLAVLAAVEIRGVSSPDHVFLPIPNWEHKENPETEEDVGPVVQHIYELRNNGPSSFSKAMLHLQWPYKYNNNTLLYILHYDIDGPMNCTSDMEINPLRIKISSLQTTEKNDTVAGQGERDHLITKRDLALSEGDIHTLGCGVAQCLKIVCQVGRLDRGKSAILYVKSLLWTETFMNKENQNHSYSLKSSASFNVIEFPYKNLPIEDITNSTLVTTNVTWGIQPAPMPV
T1 sequence (P05106 27-718, chain 2 of 2, further chain): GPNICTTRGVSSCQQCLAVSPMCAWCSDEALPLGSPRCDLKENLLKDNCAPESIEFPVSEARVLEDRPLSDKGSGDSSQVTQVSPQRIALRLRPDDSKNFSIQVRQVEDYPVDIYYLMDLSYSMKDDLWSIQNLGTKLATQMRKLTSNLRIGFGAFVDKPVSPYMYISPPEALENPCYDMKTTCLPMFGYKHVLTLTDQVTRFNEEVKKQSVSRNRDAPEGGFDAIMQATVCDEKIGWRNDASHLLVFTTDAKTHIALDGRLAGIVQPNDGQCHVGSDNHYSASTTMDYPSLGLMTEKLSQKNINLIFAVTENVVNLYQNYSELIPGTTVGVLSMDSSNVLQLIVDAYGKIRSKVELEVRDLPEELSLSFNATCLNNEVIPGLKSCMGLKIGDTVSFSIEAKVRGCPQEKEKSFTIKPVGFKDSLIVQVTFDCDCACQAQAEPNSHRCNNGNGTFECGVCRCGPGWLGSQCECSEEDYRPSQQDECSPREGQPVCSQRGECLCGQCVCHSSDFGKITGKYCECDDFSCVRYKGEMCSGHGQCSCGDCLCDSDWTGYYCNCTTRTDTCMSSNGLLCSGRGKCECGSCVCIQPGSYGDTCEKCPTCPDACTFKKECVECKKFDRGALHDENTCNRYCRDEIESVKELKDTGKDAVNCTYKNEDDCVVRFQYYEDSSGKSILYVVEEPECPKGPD
Protocol: as §1, with “Kinetic modeling and simulations were performed using BIAevaluation software with the heterogeneous ligand model for self-assembled proteins and with a 1:1 ligand model for the unimeric protein (RLP20-ELP80-Fn3).” left out, “All SPR measurements were carried out at 25° C. The SPR measurements were carried out using polypeptide concentrations ranging between 2.5 and 10 μM.” left out, “squares. […]” for “squares.”

human αvβ3 integrin [4] = target: T1, human αvβ3 integrin; assay: SPR (Biacore T200), human αvβ3 integrin amine-coupled to a CM5 chip, 25 °C, 1:1 model
Protocol: as §1
We next used surface plasmon resonance (SPR) to characterize the avidity of the RLPXX-ELP80-Fn3 (SEQ ID NO: 95-97) fusions to the ectodomain of human αvβ3 integrin. SPR sensorgrams were generated for binding of the Fn3-functionalized RLP-ELP80 block co-polypeptides at concentrations ranging between 2.5 and 10 μM. […]

fold increase in cell uptake compared to spherical micelles [1]: 5 fold
fold of geometric fluorescent intensity mean over the undecorated control [1]: 3 fold
Kd (human αvβ3 integrin [2]): 0.786 nM
koff (human αvβ3 integrin [2]): 3.2e-06 s⁻¹
kon (human αvβ3 integrin [2]): 4060 M⁻¹ s⁻¹
fold increase in avidity against the monomer ligand (RLP20-ELP80-Fn3) (human αvβ3 integrin [3]): ~1000 fold
B1: RLP80-ELP80-Fn3 (designed binder)
chain: QYPSDGRGQYPSDGRGQYPSDGRGQYPSDGRGQYPSDGRGQYPSDGRGQYPSDGRGQYPSDGRGQYPSDGRGQYPSDGRGQYPSDGRGQYPSDGRGQYPSDGRGQYPSDGRGQYPSDGRGQYPSDGRGQYPSDGRGQYPSDGRGQYPSDGRGQYPSDGRGQYPSDGRGQYPSDGRGQYPSDGRGQYPSDGRGQYPSDGRGQYPSDGRGQYPSDGRGQYPSDGRGQYPSDGRGQYPSDGRGQYPSDGRGQYPSDGRGQYPSDGRGQYPSDGRGQYPSDGRGQYPSDGRGQYPSDGRGQYPSDGRGQYPSDGRGQYPSDGRGQYPSDGRGQYPSDGRGQYPSDGRGQYPSDGRGQYPSDGRGQYPSDGRGQYPSDGRGQYPSDGRGQYPSDGRGQYPSDGRGQYPSDGRGQYPSDGRGQYPSDGRGQYPSDGRGQYPSDGRGQYPSDGRGQYPSDGRGQYPSDGRGQYPSDGRGQYPSDGRGQYPSDGRGQYPSDGRGQYPSDGRGQYPSDGRGQYPSDGRGQYPSDGRGQYPSDGRGQYPSDGRGQYPSDGRGQYPSDGRGQYPSDGRGQYPSDGRGQYPSDGRGQYPSDGRGQYPSDGRGQYPSDGRGQYPSDGRGQYPSDGRGQYPSDGRGQYPSDGRGGAGVPGGGVPGAGVPGGGVPGAGVPGGGVPGAGVPGGGVPGAGVPGGGVPGAGVPGGGVPGAGVPGGGVPGAGVPGGGVPGAGVPGGGVPGAGVPGGGVPGAGVPGGGVPGAGVPGGGVPGAGVPGGGVPGAGVPGGGVPGAGVPGGGVPGAGVPGGGVPGAGVPGGGVPGAGVPGGGVPGAGVPGGGVPGAGVPGGGVPGAGVPGGGVPGAGVPGGGVPGAGVPGGGVPGAGVPGGGVPGAGVPGGGVPGAGVPGGGVPGAGVPGGGVPGAGVPGGGVPGAGVPGGGVPGAGVPGGGVPGAGVPGGGVPGAGVPGGGVPGAGVPGGGVPGAGVPGGGVPGAGVPGGGVPGAGVPGGGVPGAGVPGGGVPGAGVPGGGVPGAGVPGGGVPGAGVPGGGVPVSDVPRDLEVVAATPTSLLISWDAPAVTVRYYRITYGETGGNSPVQEFTVPGSKSTATISGLKPGVDYTITVYAVTGRGDSPASSKPISINYRTG
notes: Self-assembled mixture of spherical and worm-like micelles; every other place prints 97; In the cell assays about 10% of the chains carried Alexa488; also called worm-like micelles; Fn3-decorated worm-like micelles

fold of geometric fluorescent intensity mean over the undecorated control [1]: 2 fold
Kd (human αvβ3 integrin [2]): 78.9 nM
koff (human αvβ3 integrin [2]): 0.000335 s⁻¹
kon (human αvβ3 integrin [2]): 4240 M⁻¹ s⁻¹
fold increase in avidity against RLP20-ELP80-Fn3 (human αvβ3 integrin [3]): 10 fold
B2: RLP40-ELP80-Fn3 (designed binder)
chain: QYPSDGRGQYPSDGRGQYPSDGRGQYPSDGRGQYPSDGRGQYPSDGRGQYPSDGRGQYPSDGRGQYPSDGRGQYPSDGRGQYPSDGRGQYPSDGRGQYPSDGRGQYPSDGRGQYPSDGRGQYPSDGRGQYPSDGRGQYPSDGRGQYPSDGRGQYPSDGRGQYPSDGRGQYPSDGRGQYPSDGRGQYPSDGRGQYPSDGRGQYPSDGRGQYPSDGRGQYPSDGRGQYPSDGRGQYPSDGRGQYPSDGRGQYPSDGRGQYPSDGRGQYPSDGRGQYPSDGRGQYPSDGRGQYPSDGRGQYPSDGRGQYPSDGRGQYPSDGRGGAGVPGGGVPGAGVPGGGVPGAGVPGGGVPGAGVPGGGVPGAGVPGGGVPGAGVPGGGVPGAGVPGGGVPGAGVPGGGVPGAGVPGGGVPGAGVPGGGVPGAGVPGGGVPGAGVPGGGVPGAGVPGGGVPGAGVPGGGVPGAGVPGGGVPGAGVPGGGVPGAGVPGGGVPGAGVPGGGVPGAGVPGGGVPGAGVPGGGVPGAGVPGGGVPGAGVPGGGVPGAGVPGGGVPGAGVPGGGVPGAGVPGGGVPGAGVPGGGVPGAGVPGGGVPGAGVPGGGVPGAGVPGGGVPGAGVPGGGVPGAGVPGGGVPGAGVPGGGVPGAGVPGGGVPGAGVPGGGVPGAGVPGGGVPGAGVPGGGVPGAGVPGGGVPGAGVPGGGVPGAGVPGGGVPGAGVPGGGVPVSDVPRDLEVVAATPTSLLISWDAPAVTVRYYRITYGETGGNSPVQEFTVPGSKSTATISGLKPGVDYTITVYAVTGRGDSPASSKPISINYRTG
notes: Self-assembled spherical micelle; In the cell assays about 10% of the chains carried Alexa488; also called spherical micelles; Fn3-decorated spherical micelles

Kd (human αvβ3 integrin [4]): 954 nM
koff (human αvβ3 integrin [4]): 0.00457 s⁻¹
kon (human αvβ3 integrin [4]): 4790 M⁻¹ s⁻¹
B3: RLP20-ELP80-Fn3 (designed binder)
chain: QYPSDGRGQYPSDGRGQYPSDGRGQYPSDGRGQYPSDGRGQYPSDGRGQYPSDGRGQYPSDGRGQYPSDGRGQYPSDGRGQYPSDGRGQYPSDGRGQYPSDGRGQYPSDGRGQYPSDGRGQYPSDGRGQYPSDGRGQYPSDGRGQYPSDGRGQYPSDGRGGAGVPGGGVPGAGVPGGGVPGAGVPGGGVPGAGVPGGGVPGAGVPGGGVPGAGVPGGGVPGAGVPGGGVPGAGVPGGGVPGAGVPGGGVPGAGVPGGGVPGAGVPGGGVPGAGVPGGGVPGAGVPGGGVPGAGVPGGGVPGAGVPGGGVPGAGVPGGGVPGAGVPGGGVPGAGVPGGGVPGAGVPGGGVPGAGVPGGGVPGAGVPGGGVPGAGVPGGGVPGAGVPGGGVPGAGVPGGGVPGAGVPGGGVPGAGVPGGGVPGAGVPGGGVPGAGVPGGGVPGAGVPGGGVPGAGVPGGGVPGAGVPGGGVPGAGVPGGGVPGAGVPGGGVPGAGVPGGGVPGAGVPGGGVPGAGVPGGGVPGAGVPGGGVPGAGVPGGGVPGAGVPGGGVPGAGVPGGGVPVSDVPRDLEVVAATPTSLLISWDAPAVTVRYYRITYGETGGNSPVQEFTVPGSKSTATISGLKPGVDYTITVYAVTGRGDSPASSKPISINYRTG
notes: also called unimer; monomer ligand
